In the BET-seq Pho4 binding data (Le et al. 2018):
The other results are listed elsewhere or left out. These are noisy estimates, calculated here from bound and input reads.

The sequences below were run against T1, Pho4 (S. cerevisiae) (UniProt P07270) (assay: relative binding free energy (BET-seq); higher = weaker binding). Details: reference: library average.
T1 sequence: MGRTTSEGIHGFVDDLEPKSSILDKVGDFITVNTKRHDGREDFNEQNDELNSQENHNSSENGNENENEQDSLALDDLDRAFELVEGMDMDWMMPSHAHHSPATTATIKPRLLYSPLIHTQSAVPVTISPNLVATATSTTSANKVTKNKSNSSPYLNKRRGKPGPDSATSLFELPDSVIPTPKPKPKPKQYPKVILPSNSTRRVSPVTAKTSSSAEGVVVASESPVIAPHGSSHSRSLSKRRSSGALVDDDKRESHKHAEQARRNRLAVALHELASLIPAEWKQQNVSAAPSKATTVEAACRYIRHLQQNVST
ACTAGCACGTGTGTAT was tested, and the “relative binding free energy” value was 0.06 kcal/mol. With ATGGTCACGTGGGGAG the “relative binding free energy” value was 0.02 kcal/mol. TTATTCACGTGTGCCG was tested, and the “relative binding free energy” value was 0.29 kcal/mol. With GGAACCACGTGGTTGT the “relative binding free energy” value was -0.07 kcal/mol. In the case of CGGATCACGTGGGATG, the “relative binding free energy” value is reported as 0.13 kcal/mol. With TTGAGCACGTGGACGG the “relative binding free energy” value was -0.09 kcal/mol. For TTAGGCACGTGGATAA, the “relative binding free energy” value was -0.03 kcal/mol. With TTGCGCACGTGGCAGA the “relative binding free energy” value was -0.07 kcal/mol. With CTTTTCACGTGTTAGT the “relative binding free energy” value was 0.25 kcal/mol. TTGAACACGTGTGTAT was tested, and the “relative binding free energy” value was 0.11 kcal/mol. In the case of GGCGTCACGTGGAGCT, the “relative binding free energy” value is reported as 0.08 kcal/mol. With GCTGTCACGTGTTCGT the “relative binding free energy” value was 0.16 kcal/mol. TTGTCCACGTGGATTG was tested, and the “relative binding free energy” value was -0.01 kcal/mol. With ATGTCCACGTGCGGGG the “relative binding free energy” value was -0.08 kcal/mol. AGGAACACGTGAGGGC was tested, and the “relative binding free energy” value was 0.37 kcal/mol. For TCCGGCACGTGCGGTT, the “relative binding free energy” value was 0.06 kcal/mol. In the case of TGATCCACGTGGGGTG, the “relative binding free energy” value is reported as -0.17 kcal/mol. For GGGATCACGTGACGTT, the “relative binding free energy” value was 0.39 kcal/mol. For ATTTTCACGTGACAGG, the “relative binding free energy” value was 0.22 kcal/mol. In the case of AACATCACGTGTTGTT, the “relative binding free energy” value is reported as 0.21 kcal/mol. CTGCGCACGTGGAGGT was tested, and the “relative binding free energy” value was -0.08 kcal/mol. For TGCGACACGTGTTATG, the “relative binding free energy” value was -0.02 kcal/mol. For GTTGTCACGTGGAGGC, the “relative binding free energy” value was 0.19 kcal/mol. In the case of CATGTCACGTGAGGGG, the “relative binding free energy” value is reported as 0.29 kcal/mol. For TTACTCACGTGTTGGG, the “relative binding free energy” value was 0.07 kcal/mol. GTTTACACGTGGCGGC was tested, and the “relative binding free energy” value was 0.11 kcal/mol. TAGTACACGTGTAGTT was tested, and the “relative binding free energy” value was 0.07 kcal/mol. With TACTGCACGTGGTTTG the “relative binding free energy” value was -0.12 kcal/mol. In the case of TGGAACACGTGGTTGT, the “relative binding free energy” value is reported as 0.06 kcal/mol. For TTGTCCACGTGGGGGG, the “relative binding free energy” value was -0.06 kcal/mol. With CTTTACACGTGGGTGT the “relative binding free energy” value was 0.1 kcal/mol. For CAGGACACGTGGGTGT, the “relative binding free energy” value was -0.08 kcal/mol. CTACTCACGTGTGGTT was tested, and the “relative binding free energy” value was 0.24 kcal/mol. For TTTTCCACGTGTTGCG, the “relative binding free energy” value was 0.19 kcal/mol. In the case of AGTTACACGTGGAGAT, the “relative binding free energy” value is reported as 0.12 kcal/mol. For TTGATCACGTGGAGAA, the “relative binding free energy” value was 0.21 kcal/mol. For TTATTCACGTGCGAGG, the “relative binding free energy” value was 0.2 kcal/mol. AGTATCACGTGCGTAT was tested, and the “relative binding free energy” value was 0.2 kcal/mol. In the case of GAGGCCACGTGGTGTG, the “relative binding free energy” value is reported as -0.04 kcal/mol. In the case of GGTATCACGTGCTGGT, the “relative binding free energy” value is reported as 0.2 kcal/mol. With CATAGCACGTGTGTAT the “relative binding free energy” value was -0.06 kcal/mol. For GCGGACACGTGGGTTA, the “relative binding free energy” value was -0.03 kcal/mol. With GTAGGCACGTGAGGAG the “relative binding free energy” value was 0.15 kcal/mol. For GGTTACACGTGGACTG, the “relative binding free energy” value was 0.03 kcal/mol. For TCAGTCACGTGTTGGA, the “relative binding free energy” value was 0.09 kcal/mol. For TAAAGCACGTGGGGGT, the “relative binding free energy” value was -0.16 kcal/mol. GCGGTCACGTGGAGTT was tested, and the “relative binding free energy” value was 0.28 kcal/mol. For TTGGACACGTGGTACA, the “relative binding free energy” value was 0.14 kcal/mol. With TGCGGCACGTGGGCAA the “relative binding free energy” value was -0.28 kcal/mol. In the case of GCGGGCACGTGTGTTT, the “relative binding free energy” value is reported as -0.07 kcal/mol. In the case of ATCGACACGTGGGATG, the “relative binding free energy” value is reported as -0.01 kcal/mol. GGTAGCACGTGATGAG was tested, and the “relative binding free energy” value was 0.09 kcal/mol. CGTAGCACGTGGATGT was tested, and the “relative binding free energy” value was -0.21 kcal/mol. In the case of TGCTTCACGTGATGAT, the “relative binding free energy” value is reported as 0.29 kcal/mol. ATATACACGTGTTGAA was tested, and the “relative binding free energy” value was 0.02 kcal/mol. In the case of ATGTGCACGTGTAGCA, the “relative binding free energy” value is reported as 0.08 kcal/mol. For TTTATCACGTGAGTTC, the “relative binding free energy” value was 0.35 kcal/mol. For GAGGTCACGTGGGGTA, the “relative binding free energy” value was -0.03 kcal/mol. For TTGTTCACGTGAAGAG, the “relative binding free energy” value was 0.18 kcal/mol. For CGTTTCACGTGCGGTA, the “relative binding free energy” value was 0.14 kcal/mol. For TAAGGCACGTGTCTGT, the “relative binding free energy” value was 0 kcal/mol. For GTAGGCACGTGATGAA, the “relative binding free energy” value was 0.05 kcal/mol. In the case of AGGGGCACGTGACGTA, the “relative binding free energy” value is reported as -0.03 kcal/mol. In the case of GTGATCACGTGGTTGG, the “relative binding free energy” value is reported as 0.07 kcal/mol. GTAAACACGTGGGAAG was tested, and the “relative binding free energy” value was 0.09 kcal/mol. For TATGGCACGTGCTTGG, the “relative binding free energy” value was -0.02 kcal/mol. For TGTGTCACGTGCTTTA, the “relative binding free energy” value was 0.04 kcal/mol. TACGTCACGTGTAGGA was tested, and the “relative binding free energy” value was 0.02 kcal/mol. CGGTTCACGTGTAAGG was tested, and the “relative binding free energy” value was 0.3 kcal/mol. In the case of AGAGGCACGTGCAGGG, the “relative binding free energy” value is reported as -0.09 kcal/mol. With GTAGGCACGTGATTGA the “relative binding free energy” value was 0.11 kcal/mol. GCGGGCACGTGGAGAT was tested, and the “relative binding free energy” value was 0.03 kcal/mol. For TGTAACACGTGGTAAT, the “relative binding free energy” value was 0.02 kcal/mol. With TACTGCACGTGTTATG the “relative binding free energy” value was -0.04 kcal/mol. With TATGGCACGTGGAATA the “relative binding free energy” value was 0.08 kcal/mol. With ATTCTCACGTGTTGTG the “relative binding free energy” value was 0.25 kcal/mol. With AAGAACACGTGATTGT the “relative binding free energy” value was 0.28 kcal/mol. For CGGTTCACGTGTGCGT, the “relative binding free energy” value was 0.24 kcal/mol. In the case of GTTTACACGTGGTACT, the “relative binding free energy” value is reported as 0.05 kcal/mol. For CGTGACACGTGCGGTG, the “relative binding free energy” value was -0.15 kcal/mol. For TTCAACACGTGGGGAG, the “relative binding free energy” value was -0.17 kcal/mol. With GTTGGCACGTGTGTGC the “relative binding free energy” value was -0.06 kcal/mol. For CGATTCACGTGTCTGT, the “relative binding free energy” value was 0.28 kcal/mol. With GCTTTCACGTGGGGCA the “relative binding free energy” value was 0.11 kcal/mol. With CAGGACACGTGGTTGT the “relative binding free energy” value was -0.03 kcal/mol. With TTTCTCACGTGTTAGA the “relative binding free energy” value was 0.23 kcal/mol. In the case of TGGTCCACGTGGAGGC, the “relative binding free energy” value is reported as 0 kcal/mol. With GAGCTCACGTGTTAGT the “relative binding free energy” value was 0.34 kcal/mol. GGGGGCACGTGTCGCG was tested, and the “relative binding free energy” value was -0.2 kcal/mol. With TCTCGCACGTGTTGTT the “relative binding free energy” value was -0.07 kcal/mol. TTGATCACGTGCGAGA was tested, and the “relative binding free energy” value was 0.16 kcal/mol. For GAAGACACGTGGGAGG, the “relative binding free energy” value was -0.11 kcal/mol. CTGGTCACGTGTTTGA was tested, and the “relative binding free energy” value was 0.08 kcal/mol. For GTGGACACGTGTTGAT, the “relative binding free energy” value was 0.17 kcal/mol. For AAAGGCACGTGGTAAG, the “relative binding free energy” value was -0.16 kcal/mol. In the case of TCTTTCACGTGTGGGA, the “relative binding free energy” value is reported as 0.27 kcal/mol. With ATGTTCACGTGCGGTA the “relative binding free energy” value was 0.24 kcal/mol. With GCCGTCACGTGGAGGG the “relative binding free energy” value was 0.09 kcal/mol. With GATAGCACGTGTATTA the “relative binding free energy” value was 0.06 kcal/mol. With TTTTTCACGTGTATCC the “relative binding free energy” value was 0.38 kcal/mol. For GTAGCCACGTGTGGTT, the “relative binding free energy” value was 0.14 kcal/mol. With TAAGGCACGTGGTTTC the “relative binding free energy” value was -0.1 kcal/mol. For AGGCGCACGTGTGGTA, the “relative binding free energy” value was -0.03 kcal/mol. TACGTCACGTGGCAGG was tested, and the “relative binding free energy” value was 0.15 kcal/mol. ATGGCCACGTGAATGG was tested, and the “relative binding free energy” value was 0.08 kcal/mol. With GGGTGCACGTGCGGGA the “relative binding free energy” value was -0.11 kcal/mol. For TAATGCACGTGTAGCA, the “relative binding free energy” value was 0.14 kcal/mol. For AGCTGCACGTGGGGGT, the “relative binding free energy” value was -0.18 kcal/mol. With AGGTTCACGTGATGGC the “relative binding free energy” value was 0.33 kcal/mol. With ATACGCACGTGATTGT the “relative binding free energy” value was 0.01 kcal/mol. For TTTCGCACGTGGAATG, the “relative binding free energy” value was 0.01 kcal/mol. GAGGTCACGTGGGCTG was tested, and the “relative binding free energy” value was 0.09 kcal/mol. For ATGGTCACGTGATGCG, the “relative binding free energy” value was 0.16 kcal/mol. For CATCGCACGTGGGTTG, the “relative binding free energy” value was -0.17 kcal/mol. TCTGTCACGTGAACGT was tested, and the “relative binding free energy” value was 0.32 kcal/mol.
